Data set [1] has as its system H4. Briefly: cell viability relative to siNT1 (ATP content); H4 human neuroglioma and GL261 mouse glioma; higher = less toxic. The settings on record: siRNA concentration 10 nM; 96 h; human.
The subject of data set [2] is GL261. The data set is described as above. The settings on record: siRNA concentration 25 nM; 96 h; mouse.

Shown are siRNA guide strands that differ only in the seed, positions 2 to 7.

A word on the cell viability: it is a read-out of living cells in per cent, often relative to untreated cells.
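Note: cells reverse transfected with siRNA duplexes via lipid reagent, ATP read by luminescence, triplicate wells, values scaled to mean viability with non-targeting control siNT1.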

UGUGACUACAUGUAAACCA: the cell viability in data set [1] is 25.1%; in data set [2] it was 33.6%.
The corresponding values for UGUGAGAACAUGUAAACCA are 59.1% and 43.4%.
The corresponding values for UGUGAGCACAUGUAAACCA are 38% and 47.9%.
Turning to UGUGAGGACAUGUAAACCA, the cell viability in data set [1] amounted to 41.7%; in data set [2], 29.5%.
The corresponding values for UGUGAGUACAUGUAAACCA are 20.1% and 14.2%.
On to UGUGAUAACAUGUAAACCA, for which the figures for the cell viability in data set [1] and in data set [2] were 66.2% and 59%, respectively.
The corresponding values for UGUGAUCACAUGUAAACCA are 70.5% and 45.9%.
For UGUGAUGACAUGUAAACCA, in that order: 78.6% and 28.6%.
Turning to UGUGAUUACAUGUAAACCA, the figures for the cell viability in data set [1] and in data set [2] were 48.9% and 61.5%, respectively.
For UGUGCAAACAUGUAAACCA, the cell viability in data set [1] amounted to 77.1%; in data set [2] it was 59.8%.
The corresponding values for UGUGCACACAUGUAAACCA are 49.2% and 50.7%.
The corresponding values for UGUGCAGACAUGUAAACCA are 60% and 46.2%.
The corresponding values for UGUGCAUACAUGUAAACCA are 71.8% and 32.6%.
For the sequence UGUGCCAACAUGUAAACCA, the cell viability came out at 76.9% in data set [1] and 34.7% in data set [2].
For UGUGCCCACAUGUAAACCA, in that order: 83.7% and 33.7%.
For UGUGCCGACAUGUAAACCA, in that order: 59.8% and 35.4%.
The corresponding values for UGUGCCUACAUGUAAACCA are 66% and 45.9%.
With UGUGCGAACAUGUAAACCA, the values for the cell viability in data set [1] and in data set [2] were 92.4% and 46.5%, respectively.
In the case of UGUGCGCACAUGUAAACCA, the cell viability in data set [1] worked out at 56.4%; in data set [2], 17%.
The corresponding values for UGUGCGGACAUGUAAACCA are 69.9% and 16.4%.
Regarding UGUGCGUACAUGUAAACCA, the cell viability in data set [1] was 60.4%; in data set [2], 21.7%.
For UGUGCUAACAUGUAAACCA, in that order: 94.6% and 64.5%.
For UGUGCUCACAUGUAAACCA, in that order: 58.1% and 34.1%.
For UGUGCUGACAUGUAAACCA, in that order: 72.2% and 52.7%.
Consider UGUGCUUACAUGUAAACCA, for which the figures for the cell viability in data set [1] and in data set [2] were 85.2% and 29.6%, respectively.
Consider UGUGGAAACAUGUAAACCA, for which the results for the cell viability in data set [1] and in data set [2] were 69.4% and 51.5%, respectively.
As for UGUGGACACAUGUAAACCA, the figures for the cell viability in data set [1] and in data set [2] were 38.7% and 23.6%, respectively.
Regarding UGUGGAGACAUGUAAACCA, the results for the cell viability in data set [1] and in data set [2] were 27.6% and 38.4%, respectively.
As for UGUGGAUACAUGUAAACCA, the cell viability was 43.9% in data set [1] and 34.9% in data set [2].
Take UGUGGCAACAUGUAAACCA: the cell viability in data set [1] was 48.5%; in data set [2], 25%.
For UGUGGCCACAUGUAAACCA, in that order: 9.22% and 13%.
The corresponding values for UGUGGCGACAUGUAAACCA are 44.5% and 31.7%.
For UGUGGCUACAUGUAAACCA, in that order: 50.8% and 22.1%.
Regarding UGUGGGAACAUGUAAACCA, the cell viability came to 47.7% in data set [1] and 18.8% in data set [2].
The corresponding values for UGUGGGCACAUGUAAACCA are 16% and 15.7%.
For UGUGGGGACAUGUAAACCA, in that order: 25.5% and 16.5%.
On to UGUGGGUACAUGUAAACCA, for which the cell viability was 27.5% in data set [1] and 11.1% in data set [2].
The corresponding values for UGUGGUAACAUGUAAACCA are 91.3% and 43.8%.
The corresponding values for UGUGGUCACAUGUAAACCA are 33.5% and 7.94%.
For UGUGGUGACAUGUAAACCA, in that order: 44.5% and 26.7%.
For UGUGGUUACAUGUAAACCA, the cell viability in data set [1] came out at 59.8%; in data set [2], 40.5%.
The corresponding values for UGUGUAAACAUGUAAACCA are 94.4% and 64.1%.
On to UGUGUACACAUGUAAACCA, for which the figures for the cell viability in data set [1] and in data set [2] were 59% and 49.7%, respectively.
As for UGUGUAGACAUGUAAACCA, the cell viability was found to be 69.4% in data set [1] and 46.3% in data set [2].
Consider UGUGUAUACAUGUAAACCA, for which the cell viability in data set [1] was 47.2%; in data set [2], 29%.
For UGUGUCAACAUGUAAACCA, in that order: 54.9% and 24.1%.
Turning to UGUGUCCACAUGUAAACCA, the cell viability in data set [1] was 40.9%; in data set [2] it was 20.3%.
Regarding UGUGUCGACAUGUAAACCA, the cell viability in data set [1] stood at 58.1%; in data set [2], 26.5%.
In the case of UGUGUCUACAUGUAAACCA, the figures for the cell viability in data set [1] and in data set [2] were 61.5% and 12.2%, respectively.
Regarding UGUGUGAACAUGUAAACCA, the cell viability in data set [1] was determined as 56.9%; in data set [2] it was 40.3%.
As for UGUGUGCACAUGUAAACCA, the cell viability in data set [1] came out at 31.1%; in data set [2] it was 15.2%.
For UGUGUGGACAUGUAAACCA, in that order: 21.1% and 15.3%.
The corresponding values for UGUGUGUACAUGUAAACCA are 28.8% and 11.2%.
As to UGUGUUAACAUGUAAACCA, the cell viability in data set [1] was 67.5%; in data set [2], 50.1%.
The corresponding values for UGUGUUCACAUGUAAACCA are 30.3% and 30.3%.
The corresponding values for UGUGUUGACAUGUAAACCA are 66.2% and 32.7%.
The corresponding values for UGUGUUUACAUGUAAACCA are 63% and 32.8%.
With UGUUAAAACAUGUAAACCA, the cell viability came out at 100% in data set [1] and 66.6% in data set [2].
For UGUUAACACAUGUAAACCA, in that order: 87.7% and 53.1%.
For UGUUAAGACAUGUAAACCA, in that order: 102% and 52.7%.
For UGUUAAUACAUGUAAACCA, in that order: 86.6% and 58.7%.
On to UGUUACAACAUGUAAACCA, for which the cell viability in data set [1] is 56.6%; in data set [2] it was 60.4%.
Consider UGUUACCACAUGUAAACCA, for which the cell viability in data set [1] worked out at 13.4%; in data set [2], 24.2%.
For UGUUACGACAUGUAAACCA, in that order: 99.9% and 71.7%.
The corresponding values for UGUUACUACAUGUAAACCA are 64.8% and 61.7%.

For the origin of these results see the supplement of paper PMC8948288.
